Out of some 52,000 compounds screened, about 4,300 (8.3%) were called active. Rule as the data show it: active = survival mostly below about 52% (no sharp cut-off); inactive = mostly above about 56%. This is one part of the list.

The values that follow come from PubChem BioAssay AID463173 (ICCB-Longwood Screening Facility, Harvard Medical School, 2010).

This assay has as its system DeltatarO mutant. The experiment in a line: growth inhibition of S. aureus wild type versus tarO mutant, primary screen, teichoic acid synthesis inhibitors, RN4220, OD600 (AID 463173). The note with it: OD600, 18 h, hits give low values, screened at 18.75 µg/mL (by protocol).
Turning to `C=CCc1c(C)nc(SC)[nH]c1=O`, the survival was inactive: 99%.

Turning to `Cc1ccc(S(=O)(=O)c2nc(S(=O)(=O)c3ccccc3)sc2NCCCOC(C)C)cc1`, the survival was inactive: 71%.

Consider `CCc1ccc(NC(=O)Cn2ccn(-c3ccc(C)c(C)c3)c(=O)c2=O)cc1`, for which the survival was inactive: 104%.

As for `CCCN(CCC)C(=O)Cn1c(=O)n(CCCCCC(=O)NCc2ccc3c(c2)OCO3)c(=O)c2sccc21`, the survival was inactive: 87%.

Take `CCOc1ccccc1CNC(=O)c1oc2c(c1C)-c1[nH]ncc1CC2`: the survival is inactive: 89%.

With `CC1CCN(c2ncnc3c2c(-c2ccccc2)cn3-c2ccc(Br)cc2)CC1`, the survival was inactive: 84%.

As to `Cc1ccc(C)n1-c1nnc(N2CCCC(C(=O)Nc3ccccc3Br)C2)s1` (stereo not drawn), the survival was inactive: 96%.

Regarding `CCOC(=O)c1c(NC(=O)c2cc(OC)c(OC)c(OC)c2)sc2c1CCCC2`, the survival was inactive: 81%.

As for `COc1ccc(Cn2nnnc2C(c2ccccn2)N2CCc3ccccc3C2)cc1` (stereo not drawn), the survival is inactive: 74%.

Consider `CC1(C)OC2C(CO)OC(n3ncc(=O)[nH]c3=O)C2O1` (stereo not drawn), for which the survival is inactive: 86%.

Turning to `CC(=O)Nc1ccc(Nc2ncnc3c2cnn3C)cc1`, the survival is inactive: 94%.

As for `COc1ccccc1-c1cc2nc(C)c(CCC(=O)NCCc3cccc(C)c3)c(C)n2n1`, the survival is inactive: 55%.

For the compound `O=C(CCCCCn1c(=O)c2sccc2n(CC(=O)Nc2cc(C(F)(F)F)ccc2Cl)c1=O)NCc1ccccc1Cl`, the survival was inactive: 73%.

In the case of `CCc1cccc(-n2c(=O)c3cccnc3n2CC(=O)NCc2ccc(C)cc2)c1`, the survival is inactive: 78%.

As for `C#CCN1CCc2cc(OC)c(OC)cc2C1C` (stereo not drawn), the survival was inactive: 101%.

Regarding `Cc1ccc(NC(=O)Cn2cnc3onc(-c4ccc(F)cc4)c3c2=O)c(Cl)c1`, the survival is inactive: 82%.

Regarding `Cc1ccc(NC(=O)c2cc3ccccn3n2)cc1F`, the survival is inactive: 86%.

For the compound `O=C(CN1C(=O)C2(SCC(=O)N2c2cccc(Cl)c2)c2ccccc21)NCc1ccccc1` (stereo not drawn), the survival was inactive: 73%.

Take `O=C(CSc1nnc(-c2ccc(Cl)cc2)o1)c1ccc(Cl)cc1`: the survival is inactive: 89%.

As to `COc1ccc(-c2cn3nc(N4CCC(C(=O)Nc5cc(Cl)ccc5C)CC4)sc3n2)cc1`, the survival is inactive: 78%.

In the case of `CC(C)(C)c1ccc(OCC(=O)NCC2(N3CCOCC3)CCCCC2)cc1`, the survival is inactive: 79%.

As for `Cc1cc(C)c(NC(=O)Cn2c(=O)n(CCC(=O)NCc3ccccc3Cl)c(=O)c3sccc32)c(C)c1`, the survival is inactive: 87%.

With `C=CCn1c(NC(=O)CC)nc2ccccc21`, the survival is inactive: 70%.

As to `CSc1ncc(C(=O)NCc2ccc(C)cc2)c(C)n1`, the survival was inactive: 69%.

With `COc1ccc(C(=O)Nc2ccc3nc(SCC(=O)N(C)c4ccccc4)sc3c2)cc1`, the survival is inactive: 101%.

For the compound `O=C(CSc1cn(CCNC(=O)c2cccc(C(F)(F)F)c2)c2ccccc12)Nc1ccc2c(c1)OCCO2`, the survival is inactive: 87%.

Turning to `CC(C)(C)c1ccc2c(c1)N(CC(=O)NCCCN1CCN(c3ccccc3F)CC1)C(=O)CO2`, the survival is inactive: 91%.

Consider `Cc1ccc(N)cc1N(C)C`, for which the survival is inactive: 78%.

With `Cc1ccc(Cl)cc1N1CCN(C(=O)CSc2cc(=O)n(C)c3ccccc23)CC1`, the survival is inactive: 63%.

Take `Cc1cccc(CC(=O)Nc2ccc3nc(N4CCC(C)CC4)cc(C)c3c2)c1`: the survival was active: 4%.

For the compound `CC(Oc1ccc(Cl)cc1Cl)C(=O)NNc1nc(Cl)nc(N(C)C)n1` (stereo not drawn), the survival was inactive: 81%.

In the case of `CC1=C(C(=O)Nc2cc(Cl)ccc2C)C(c2sccc2C)n2ncnc2N1` (stereo not drawn), the survival is inactive: 55%.

Regarding `CCOc1ccc(S(=O)(=O)NCCc2c(C)[nH]c3c(Cl)cccc23)cc1C`, the survival was inactive: 55%.

`CC(C)N(C(=O)Cn1cc(S(=O)(=O)Cc2ccc(Br)cc2)c2ccccc21)C(C)C`: the survival was inactive: 65%.

As for `CC1CCN(S(=O)(=O)c2ccc3c(c2)N(CC(=O)NCCCN2CCCCC2)C(=O)CS3)CC1`, the survival was inactive: 72%.

Regarding `Cc1ccc(CNC(=O)c2cc(-c3ccc(C)cc3)nc3n[nH]c(-c4cccc([N+](=O)[O-])c4)c23)cc1`, the survival was inactive: 78%.

In the case of `O=C(c1ccc(F)cc1)N1CCC(c2nc3ccccc3s2)CC1`, the survival is inactive: 76%.

Consider `O=C(NCCc1ccc(Cl)cc1)C(=O)NCC(c1cccs1)S(=O)(=O)c1cccs1` (stereo not drawn), for which the survival is inactive: 70%.

Regarding `CCC(C)NC(=O)CSc1c2c(nc3cc(Cl)ccc13)CCCC2` (stereo not drawn), the survival is inactive: 82%.

For `O=C(Nc1ccc2nc(SCC(=O)N3CCOCC3)sc2c1)c1ccc(Br)cc1`, the survival was inactive: 83%.

Consider `COc1ccc(C(=O)Nc2cc(-c3nc4ccccc4s3)ccc2OC)cc1`, for which the survival is active: 19%.

In the case of `O=C(CN(CCO)CCO)N(C1CCCCC1)C1CCCCC1`, the survival is inactive: 87%.

`CCCOC1(C(F)(F)F)NC(=O)N(c2cccc(Cl)c2)C1=O` (stereo not drawn): the survival was inactive: 65%.

Take `C=Cc1ccc(Cn2c(C(=O)O)c(CNC3CCCCC3)c3ccc(OC)cc32)cc1`: the survival was inactive: 114%.

In the case of `COc1cccc(CNC(=O)C(=O)NCC(c2ccc3c(c2)OCO3)N2CCOCC2)c1` (stereo not drawn), the survival was inactive: 78%.

`CCNc1nc(NCC)nc(NCCO)n1`: the survival is inactive: 74%.

As to `CCCN1CCN(CC2=C(C(=O)OCC)C(c3ccc(OC(C)C)cc3)NC(=O)N2)CC1` (stereo not drawn), the survival was inactive: 78%.

Regarding `CCn1c(=O)c(=O)n(CC)c2cc(N3CCCCC3)c(NC(=O)c3ccccc3OC)cc21`, the survival was inactive: 91%.

On to `CSc1nc2c(sc3ccccc32)c(=O)n1Cc1ccc(C)cc1`, for which the survival was inactive: 96%.

In the case of `COc1ccccc1-c1c(C)nn2c(N3CCN(c4ccccc4)CC3)cc(C)nc12`, the survival was inactive: 89%.

For `CCOc1ccc(-c2nc(CSCC(=O)NCCc3ccc(OCC)c(OCC)c3)c(C)o2)cc1`, the survival was inactive: 84%.

Consider `CCCN1CN=C(NS(=O)(=O)c2ccc(NC(C)=O)cc2)NC1`, for which the survival is inactive: 77%.

As for `O=C(NCCc1ccccc1)c1ccc(Cn2c(SCc3ccccc3F)nc3cccnc32)cc1`, the survival was inactive: 87%.

On to `O=C(CSc1nc(=O)n(Cc2ccncc2)c2c1CCC2)Nc1ccc(F)cc1F`, for which the survival was inactive: 78%.

As to `CCc1ccc(NC(=O)CSc2nc(-c3cccc(OC)c3)nc3c2Cc2c(CO)cnc(C)c2O3)cc1`, the survival was inactive: 87%.

Turning to `CCCC12CN3CC(CCC)(CN(C1)C3c1ccc(OC(C)C)cc1)C2=O` (stereo not drawn), the survival is active: 21%.

For the compound `COc1cccc(Cn2c(C)c(CNC3CCCCC3)c(C(=O)O)c2C)c1`, the survival is inactive: 88%.

For the compound `COc1cc(C(=O)N(Cc2ccc(N(C)C)cc2)CC2CCCO2)cc(OC)c1OC` (stereo not drawn), the survival is active: 47%.
